{
  "source": "PubChem BioAssay (NCATS)",
  "key": {"[1]": {"experiment": "Viability qHTS for spleen associated tyrosine kinase inhibitor (SYKi) naive MV4-11 cells (AID 1963823); also: nearly all actives have a fitted effect of over 40% in size", "details": "MV4-11 AML viability, CellTiter-Glo luminescence, 72 h; series mostly up to 45 µM", "in_short": "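Luminescence from CellTiter-Glo, developed 10 min at room temperature, gave viability of MV4-11 cells never exposed to SYK inhibitor. Cells (500/well) had been incubated with compounds for 72 hr under standard culture conditions.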"}, "[2]": {"experiment": "Viability qHTS for spleen associated tyrosine kinase inhibitor (SYKi) drug resistant MV4-11 cells (AID 1963824); also: nearly all actives have a fitted effect of over 35% in size", "in_short": "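SYK inhibitor-resistant MV4-11 AML cells, 500 per well, added to predispensed compounds and incubated 72 hr at 37 C, 5% CO2. Viability measured by CellTiter-Glo luminescence after 10 min at room temperature.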"}, "[3]": {"experiment": "Quantitative highthroughput screen to assess conditional lethalithy of NOMO1 cells grown in RPMI1640 with untreated serum (RPMI+s) (AID 1963876); also: nearly all actives have a fitted effect of over 35% in size", "details": "NOMO1 AML cells in RPMI+serum, CellTiter-Glo viability, 48 h; viability: at 45.8 µM (top of the series)", "in_short": "(§1)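 Each medium arm—HPLM with 10% dialyzed FBS, or RPMI1640 with 5 mM glucose and 10% untreated or dialyzed FBS—was screened against an 11-point, 3-fold compound titration for 48 h at 37 °C, with CellTiter-Glo luminescence as endpoint.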"}, "[4]": {"experiment": "Quantitative highthroughput screen to assess conditional lethalithy of NOMO1 cells grown in Human Plasma-Like Medium with dialyzed fetal bovine serum (HPLM+ds) (AID 1963878)", "details": "NOMO1 AML cells in HPLM+ds, CellTiter-Glo viability, 48 h; viability: at 45.8 µM (top of the series)", "in_short": "as §1"}, "[5]": {"experiment": "Quantitative highthroughput screen to assess conditional lethalithy of P12 Ichikawa cells grown in Human Plasma-Like Medium with dialyzed fetal bovine serum (HPLM+ds) (AID 1963879)", "details": "Potency: viability", "in_short": "as §1"}, "[6]": {"experiment": "Quantitative highthroughput screen to assess conditional lethalithy of P12 Ichikawa cells grown in RPMI1640 with dialyzed fetal bovine serum (RPMI+ds) (AID 1963880)", "details": "Potency: P12-Ichikawa viability", "in_short": "as §1"}, "[7]": {"experiment": "Quantitative highthroughput screen to assess conditional lethalithy of P12 Ichikawa cells grown in RPMI1640 with untreated serum (RPMI+s) (AID 1963881)", "details": "Potency: viability", "in_short": "as §1"}, "[8]": {"experiment": "Quantitative highthroughput screen to assess conditional lethalithy of SEM cells grown in RPMI1640 with unreated serum (RPMI+s) (AID 1963883)", "details": "SEM B-ALL cells, CellTiter-Glo viability, 48 h; viability: at 45.8 µM (top of the series)", "in_short": "as §1"}, "[9]": {"experiment": "Quantitative highthroughput screen to assess conditional lethalithy of SEM cells grown in Human Plasma-Like Medium with dialyzed fetal bovine serum (HPLM+ds) (AID 1963882)", "in_short": "as §1"}, "[10]": {"experiment": "Cellular viability qHTS for adrenocortical cancer (ACC) cell line NCI-H295R (AID 1963990)", "details": "CellTiter-Glo ATP luminescence, 48 h", "in_short": "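Luminescent ATP read-out (CellTiter-Glo, 20 min RT) after 48 h drug exposure of NCI-H295R cells; a titration up to 46 uM final. Data normalized to doxorubicin (100% inhibition) and DMSO (0%); 4-parameter fit gives IC50, max response.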"}},
  "note": "Several values for one entry are separate records, joined by “and”; a condition that tells them apart may be missing. Equal entries are not always repeated. The inconclusive results got no clear call from the source; some entries with a clear call stand among them for comparison. For part of these data: Potencies beside an inconclusive call are fits to weak or partial responses and may not hold up. Activity calls are given as the source filed them. Calls follow the shape of the dose curve; as a rule, active = well fitted curve in the direction sought with a large enough effect; inconclusive = small, poorly fitted or top-dose-only effect, or another doubt; inactive = no such curve, though single readings can be large; an effect the other way counts as inactive or inconclusive. Potency is read from the fitted curve at half-maximal effect; tags tell the direction and shape of the fitted curve.",
  "data": [
    {"smiles": "Cn1nnc2c(C(N)=O)ncn2c1=O", "values": [
      {"measurement": "Potency", "setting": "[1]", "value": "inactive"},
      {"measurement": "Potency", "setting": "[2]", "value": "inconclusive: 6.68 µM [cytotoxic, partial curve]"},
      {"measurement": "Potency", "setting": "[3]", "value": "inconclusive: 37.2 µM [cytotoxic, partial curve, poor fit]"},
      {"measurement": "Potency", "setting": "[4]", "value": "active: 18.7 µM"},
      {"measurement": "Potency", "setting": "[5]", "value": "inconclusive: 20.9 µM [cytotoxic, single point]"},
      {"measurement": "Potency", "setting": "[6]", "value": "inconclusive: 18.7 µM [cytotoxic, partial curve]"},
      {"measurement": "Potency", "setting": "[7]", "value": "inconclusive: 23.5 µM [cytotoxic, single point]"},
      {"measurement": "Potency", "setting": "[8]", "value": "inconclusive: 0.264 µM [cytotoxic, full curve]"}
    ]},
    {"smiles": "Cc1cc(Nc2nc(N[C@@H](C)c3ccc(F)cc3)c(C#N)cc2F)n[nH]1", "values": [
      {"measurement": "Potency", "setting": "[1]", "value": "active: 651 nM and inconclusive: 525 nM [cytotoxic, full curve]"},
      {"measurement": "Potency", "setting": "[2]", "value": "active: 580 nM and active: 590 nM"},
      {"measurement": "Potency", "setting": "[3]", "value": "inconclusive: 2.35 µM [cytotoxic, full curve]"},
      {"measurement": "Potency", "setting": "[4]", "value": "inconclusive: 9.35 µM [cytotoxic, partial curve, poor fit]"},
      {"measurement": "Potency", "setting": "[5]", "value": "inconclusive: 2.64 µM [cytotoxic, full curve]"},
      {"measurement": "Potency", "setting": "[7]", "value": "active: 2.35 µM"},
      {"measurement": "Potency", "setting": "[8]", "value": "active: 2.96 µM"}
    ]},
    {"smiles": "CCN(CC)CCCCNc1ncc2c(n1)N(C)C(=O)N(c1c(Cl)c(OC)cc(OC)c1Cl)C2", "values": [
      {"measurement": "Potency", "setting": "[1]", "value": "inconclusive: 16.6 µM [cytotoxic, partial curve]"},
      {"measurement": "Potency", "setting": "[2]", "value": "active: 14.8 µM"},
      {"measurement": "Potency", "setting": "[3]", "value": "inconclusive: 26.4 µM [cytotoxic, single point]"},
      {"measurement": "Potency", "setting": "[4]", "value": "active: 26.4 µM"},
      {"measurement": "Potency", "setting": "[5]", "value": "inconclusive: 33.2 µM [cytotoxic, single point]"},
      {"measurement": "Potency", "setting": "[6]", "value": "inconclusive: 23.5 µM [cytotoxic, partial curve]"},
      {"measurement": "Potency", "setting": "[7]", "value": "inconclusive: 23.5 µM [cytotoxic, partial curve]"},
      {"measurement": "Potency", "setting": "[9]", "value": "active: 14.8 µM"},
      {"measurement": "Potency", "setting": "[10]", "value": "inconclusive: 8.91 µM [cytotoxic, full curve]"}
    ]}
  ]
}
